The list shows a part of the results.
The sequences below were run against T1, OsWOX13 (Oryza sativa, UniProt Q5QMM3 1-267) (assay: protein-binding microarray (RPBM); PBS, 2% BSA, 51.3 ng/ul salmon testes DNA, 50 uM zinc acetate, 200 nM TF, 25 C, 1 h; high values mean tight binding). Details: protein: recombinant; tags: N-terminal polyhistidine and DsRed monomer fusion (pET32a); label: CyDye5-dUTP incorporated in the synthesized complementary strand; 3' TTTTT single-stranded linker to array surface; dsDNA, one strand shown.
T1 sequence: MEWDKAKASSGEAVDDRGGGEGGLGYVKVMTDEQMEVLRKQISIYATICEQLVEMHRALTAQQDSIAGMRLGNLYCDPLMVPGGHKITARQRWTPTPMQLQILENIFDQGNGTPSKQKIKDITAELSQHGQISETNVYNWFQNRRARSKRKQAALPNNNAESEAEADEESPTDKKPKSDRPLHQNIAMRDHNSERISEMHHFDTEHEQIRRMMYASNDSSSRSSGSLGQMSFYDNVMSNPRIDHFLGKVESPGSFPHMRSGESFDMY
Outline: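 An Axon 4000B scanner gave the binding signal as per-feature fluorescence intensity in arbitrary units. This followed washing of a custom Agilent array that had been incubated for 1 h at 25 °C with 200 nM protein in PBS, 2% BSA, salmon testes DNA and 50 µM zinc acetate. The proteins were transcription factors fused at the N-terminus to polyhistidine and DsRed, expressed in E. coli BL21-CodonPlus and purified on Ni–NTA.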

| Sequence | binding signal |
| --- | --- |
| GTGATGATTGGGCAGTGGAGTGGGGCAGGTGTGGGCGGACCGGAGTCACCTAGTGCAG | 44700 fluorescence intensity (a.u.) |
| GGAAACGTATAATTAGTTCCTTTTCTTTTGTAATCAAATTCGGAGTCACCTAGTGCAG | 3320 fluorescence intensity (a.u.) |
| TCGTTGACATTAAAGATTAGCAAAAGCTAAGCTACAAACTCGGAGTCACCTAGTGCAG | 6730 fluorescence intensity (a.u.) |
| TCTGAGATTTATTGATTAGATTATAACGTAATCGTTGTTACGGAGTCACCTAGTGCAG | 29300 fluorescence intensity (a.u.) |
| AATATATTCAATGTTAAATTTAACAAAACTATTTGTGCTACGGAGTCACCTAGTGCAG | 3660 fluorescence intensity (a.u.) |
| ATATAATTAATTAAAATATTAATTATTATTTGTAAAATGGCGGAGTCACCTAGTGCAG | 65500 fluorescence intensity (a.u.) |
| AGGTGATCATGCAAGGTAGTCAACAGTGTACTGCTAGTTACGGAGTCACCTAGTGCAG | 53800 fluorescence intensity (a.u.) |
| TTTACAAAATTATAATGACATGGTTCCAAATTACCCTTAACGGAGTCACCTAGTGCAG | 6850 fluorescence intensity (a.u.) |
| TATACCTAATTAACTATAAAACACAACAAACAAGGCATATCGGAGTCACCTAGTGCAG | 10200 fluorescence intensity (a.u.) |
| CCCGACCTGGATTGACTACTTTGCCTCCAATTAACCCATTCGGAGTCACCTAGTGCAG | 13100 fluorescence intensity (a.u.) |
| GGTAATTATTATTTTAGCGATGAGTGATATATATAGGGATCGGAGTCACCTAGTGCAG | 25800 fluorescence intensity (a.u.) |
| GCGTAATAGAAAGAGAGATCTCCCGTCTCGTCCGTCGTCTCGGAGTCACCTAGTGCAG | 5560 fluorescence intensity (a.u.) |
| CCAACAAATTTTGTGTGACTACAACCTGCCTACAACCTGTCGGAGTCACCTAGTGCAG | 5370 fluorescence intensity (a.u.) |
| GTCGGGTCCTTTGAATGATTACAAATGGTATCAGAGCGCGCGGAGTCACCTAGTGCAG | 3200 fluorescence intensity (a.u.) |
| TATAAATTTGCTTTGCCATCGCGTCGTCGGGATCGTGTACCGGAGTCACCTAGTGCAG | 3960 fluorescence intensity (a.u.) |
| ATTATTAGTAGATTAATTAATAAACCTCACTCAATCTGGCCGGAGTCACCTAGTGCAG | 15200 fluorescence intensity (a.u.) |
| TCAATCTATAATTTAAATTGTCATAAACCGTATCATCTAACGGAGTCACCTAGTGCAG | 16200 fluorescence intensity (a.u.) |
| GCTGATATGACAGAATACACACCACCAGCTAAGCGGCACACGGAGTCACCTAGTGCAG | 16400 fluorescence intensity (a.u.) |
| ACTATTTTCAGTTTAATTTATCCTTTTCGTTGCAACTTGTCGGAGTCACCTAGTGCAG | 3550 fluorescence intensity (a.u.) |
| CAAATTAACTGAAGCGTGCAAAGTTTGGATCCGGCCGCGACGGAGTCACCTAGTGCAG | 12700 fluorescence intensity (a.u.) |
| GGCGCTTATCACGGCATTGATTAGCTAATCATCACTCCATCGGAGTCACCTAGTGCAG | 35900 fluorescence intensity (a.u.) |

| Sequence | binding signal |
| --- | --- |
| AGTGCTAACTTAATCAATTCCCTTAAGTTTCCTATTGAAGCGGAGTCACCTAGTGCAG | 5290 fluorescence intensity (a.u.) |
| GAAAATTTCTTCCCCAATTAAGCCGCGCAAATTATACCGACGGAGTCACCTAGTGCAG | 10600 fluorescence intensity (a.u.) |
| CTTTGATTACATCAAGCCACTGAATTATCAGTTATAATCTCGGAGTCACCTAGTGCAG | 23100 fluorescence intensity (a.u.) |
| GTGGATTGGACAATTTGGACAAGATAACCCTTCTCTCTCTCGGAGTCACCTAGTGCAG | 25700 fluorescence intensity (a.u.) |
| AATTTCTTGTTCAATCATTTCATATATATATACATGTAGGCGGAGTCACCTAGTGCAG | 6120 fluorescence intensity (a.u.) |
| ATATTAATTACATATGTAAGTGGCGTGTAAGTAGAATGTACGGAGTCACCTAGTGCAG | 13800 fluorescence intensity (a.u.) |
| GACACTAATTTAGGGTATTAAACGTAGACTACTTAGAACACGGAGTCACCTAGTGCAG | 10800 fluorescence intensity (a.u.) |
| ATGAATAATTGAGGAAAACAAAGCGACCATGCGATGTAATCGGAGTCACCTAGTGCAG | 23200 fluorescence intensity (a.u.) |
| CACCCCTTCTAATTATTTGATATTAAGTTATTTCCTAGTACGGAGTCACCTAGTGCAG | 4390 fluorescence intensity (a.u.) |
| ATGATGAAATCATTGAAAACGCGGAGGCAAGAGGACGTGCCGGAGTCACCTAGTGCAG | 4180 fluorescence intensity (a.u.) |
| GTTTAAATGTGATGATTGTTAGTGGATGATGATGTGGCATCGGAGTCACCTAGTGCAG | 26100 fluorescence intensity (a.u.) |
| AGGCAAAATTTATCATCCTATCAGATAGCTCTCAGGCACCCGGAGTCACCTAGTGCAG | 4200 fluorescence intensity (a.u.) |
| TATGTTAAATTTACTCAAATTTATAGAAAATTTAGCAATACGGAGTCACCTAGTGCAG | 12000 fluorescence intensity (a.u.) |
| GATAGATAGATAGATAGATAGATAGATTTGTTGGCTGTGTCGGAGTCACCTAGTGCAG | 63500 fluorescence intensity (a.u.) |
| CCAAACTGAACAGAAAACAGAATCCGTACATCCCAGCTCACGGAGTCACCTAGTGCAG | 6880 fluorescence intensity (a.u.) |
| ATCTGATGGAATCAAGAAGGCCAACGTTGGTGTGGGCCGGCGGAGTCACCTAGTGCAG | 5560 fluorescence intensity (a.u.) |
| CACTACTCATTCAATCACAACCCTTCACCGTTTACTTCTACGGAGTCACCTAGTGCAG | 13100 fluorescence intensity (a.u.) |
| ATAATAATAAACGAAATAATTATTACTCACTCCTTCCAATCGGAGTCACCTAGTGCAG | 10500 fluorescence intensity (a.u.) |
| AGGTAATTGTAGGGCCATATTGAACAGCACTGCATACACGCGGAGTCACCTAGTGCAG | 12100 fluorescence intensity (a.u.) |
| AACACCAATCACCACGTACGCCGACCAACCCCATCCACCCCGGAGTCACCTAGTGCAG | 14200 fluorescence intensity (a.u.) |
| GTGGCTTGATTTAACACTAAAAGTTATTTAAGCATCATATCGGAGTCACCTAGTGCAG | 6040 fluorescence intensity (a.u.) |
